In the supplement of paper PMC10126150 one finds switch fluorescence ratio data, which are given here for 67 sequences.

Values marked as one replicate rest on one cluster of the flow cell; about a third of the high ones do not repeat.

This series concerns ATP. In words: switch fluorescence ratio, 500 uM ATP over buffer (Cy3 cluster intensity, sum of 5 cycles each) (fold (ratio)); higher = stronger signal-on switching upon ATP binding; sequences stand for … in TCGTCGGCAGCGTCAGATGTGTATAAGAGACAGTTTTTTTTTTTTTTTTTTTTTTTTT…TC. The following applies: aptamer strand: ATP DNA aptamer (quencher-CACCTGGGGGAGTATTGCGGAGGAAGG + anchor), 100 nM annealed; ATP concentration: 500 uM; one replicate. In outline: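 Exposure to 500 uM ATP lasted 15 min at 22 °C before imaging, and a selection-buffer image was taken beforehand, for Cy3-labelled switching-strand clusters on a modified Illumina MiSeq flow-cell annealed to 100 nM quencher-labelled ATP aptamer. Five buffer/ATP cycles were run with NaOH stripping and re-annealing between them. The fluorescence ratio per cluster is summed target-cycle over summed buffer-cycle Cy3 intensity, averaged per switch-domain sequence. Clusters outside 100-1000 RFU were excluded.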
Consider ACAAACGTCT, for which the switch fluorescence ratio stood at 1.01.
The value for GTATTGGATT was 0.952; that for CCATGTGGTT was 1.01; that for CCGTGATCCA was 1.13.
Consider CGTTCAGGTG, for which the switch fluorescence ratio was 2.26.
The value for CCTGAGTGGG was 0.963; that for TACGCTTTCG was 1.08.
The same measure for TGATAACAAT: 0.988.
For GATGATATGT, the switch fluorescence ratio worked out at 0.983.
Turning to TGGGTTGCTA, the switch fluorescence ratio turned out to be 0.988.
As to GACAAGGGGA, the switch fluorescence ratio came out at 1.04.
Turning to TGCGCCAGAA, the switch fluorescence ratio was determined as 0.944.
The same measure for CCCGGTGTCG: 0.982.
Regarding GGGTACTTAC, the switch fluorescence ratio is 1.3.
For the sequence AATTAGTTTC, the switch fluorescence ratio stood at 0.991.
The same measure for CTGGGACAGC: 1.01; for CAGGACGTGA: 1.05; for GGGGAACCAA: 1.07.
In the case of TGTACGTAGT, the switch fluorescence ratio was determined as 0.969.
The same measure for TCGATGATTA: 1.01.
The value for ATGAATATGG was 0.975; that for AATGAAACCG was 1.13.
The same measure for CTAAGAAT: 1; for CGAGGAAAAT: 1.02; for GGGGTTTGT: 0.995.
Take TCAGCCGCTA: the switch fluorescence ratio was 1.79.
As for TAGATTAGGC, the switch fluorescence ratio was 0.957.
Consider ATTCGTTAGG, for which the switch fluorescence ratio came out at 0.97.
The same measure for AAATTCAACG: 1.02; for ACGCCGAGAG: 1.08; for GTACGTGGCC: 1.05.
The value for ACACTCTCTA was 1.03; that for CAAGCCCTC was 1.02.
The value for TCGTTCGCC was 1.14; that for ATGACTTTGA was 1.01; that for AGAACGTGCT was 1.01.
For the sequence TGGTGAGGTT, the switch fluorescence ratio amounted to 1.01.
The value for GTGGCCCCAT was 0.982; that for TTGGGCGGTC was 1.03.
For TCGTCATCA, the switch fluorescence ratio amounted to 1.
The value for CGGACTAAAA was 1.05.
The value for GATGGCGTTG was 0.99; that for TGCACAGTG was 1.06.
The same measure for TTCTGCAGAC: 1.83; for TTCCAATAAA: 1.07.
Take TAGTATGTCC: the switch fluorescence ratio was 1.04.
For the sequence TAGCTTGTA, the switch fluorescence ratio came out at 0.966.
The value for TAGTTTTAAC was 1.02; that for TAATCCTGGG was 0.991.
Turning to TTCGAACT, the switch fluorescence ratio was 0.928.
The value for GAGTAATTCC was 0.996; that for CGAATGTTGA was 0.976.
The value for GGACTTGAAA was 0.954; that for GGTTCCTAAT was 0.992.
For the sequence CCTCTTTCAG, the switch fluorescence ratio came to 1.01.
The same measure for AGATTGCGG: 0.944.
Regarding ATATCTTGGT, the switch fluorescence ratio turned out to be 0.967.
The value for CCACGGTGAT was 1.81; that for AACACATAGA was 1.04.
On to TTGATTGGT, for which the switch fluorescence ratio stood at 0.996.
Take GAGCCTGGAT: the switch fluorescence ratio was determined as 1.01.
Turning to TGGACACTAG, the switch fluorescence ratio is 1.03.
As to GTTTATCTTG, the switch fluorescence ratio is 1.04.
The same measure for AAGTAGCGAC: 1.03; for CTCATAAAGC: 1.04.
As to ATCGTAGTCT, the switch fluorescence ratio stood at 0.978.
The same measure for GCCCCACGGC: 0.985.
